# From the supplement of paper PMC12217912
# The other results are listed elsewhere or left out. The full chains were built here from the parent and the listed change. Values near 0.05 are background.
# B1: TEV protease; numbered along this chain (parent)
# chain: MGESLFKGPRDYNPISSSICHLTNESDGHTTSLYGIGFGPFIITNKHLFRRNNGTLVVQSLHGVFKVKDTTTLQQHLVDGRDMIIIRMPKDFPPFPQKLKFREPQREERICLVTTNFQTKSMSSMVSDTSCTFPSGDGIFWKHWIQTKDGQCGSPLVSTRDGFIVGIHSASNFTNTNNYFTSVPKNFMELLTNQEAQQWVSGWRLNADSVLWGGHKVFMVKPEEPFQPVKEATQL
# Variants of: B1
# Assay: raw area under fraction-flipped curve 0-4 h after induction (AUC4h, not background-subtracted), DNA-recorder readout of cleavage of the substrate (dimensionless); higher = more cleavage of the substrate by the protease variant
# Conditions: temperature: 34 °C; time window: 0-4 h after rhamnose induction
# Description: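 In vivo DNA recorder in E. coli TOP10(DE3) ΔrhaA at 34 °C. Each TEVp single-site mutant (parent TEVp 0) is paired with a single-site variant of the 7-mer TEVs (canonical ENLYFQ|S). The substrate sits between flexible linkers in a Bxb1-sfGFP-TEVs-SsrA fusion, so cleavage stabilises Bxb1 and speeds flipping of a recombination array, read by NGS. The value is the raw area under the fraction-flipped curve over 0-4 h after rhamnose induction (AUC4h), with ≥20 reads per time point. It is not background-subtracted; inactive controls average about 0.047.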
# 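Note: Bxb1 expression induced with 0.2% (w/v) L-rhamnose at OD600 near 0.5, cultures sampled hourly, flipped fraction per protease–substrate barcode pair counted by paired-end Illumina sequencing.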
Variant,area with substrate ENLAFQS,area with substrate ENLCFQS,area with substrate ENLDFQS,area with substrate ENLEFQS,area with substrate ENLGFQS,area with substrate ENLHFQS,area with substrate ENLKFQS,area with substrate ENLLFQS,area with substrate ENLNFQS,area with substrate ENLPFQS,area with substrate ENLQFQS,area with substrate ENLRFQS,area with substrate ENLSFQS,area with substrate ENLVFQS,area with substrate ENLWFQS,area with substrate ENLFFQS,area with substrate ENLIFQS,area with substrate ENLMFQS,area with substrate ENLTFQS
MGESLFKGPRDYNPISSSICHLTNESDGHTTSLYGIGFGPFIITNKHLFRRNNGTLVVQSLHGVFKVKDTTTLQQHLVDGRDMIIIRMSKDFPPFPQKLKFREPQREERICLVTTNFQTKSMSSMVSDTSCTFPSGDGIFWKHWIQTKDGQCGSPLVSTRDGFIVGIHSASNFTNTNNYFTSVPKNFMELLTNQEAQQWVSGWRLNADSVLWGGHKVFMVKPEEPFQPVKEATQL [P89S],0.053,0.0698,0.0588,0.0779,0.0659,0.065,0.0586,0.0716,0.0632,0.0718,0.0503,0.0782,0.0355,0.0796,0.0579,–,–,–,–
MGESLFKGPRDYNPISSSICHLTNESDGHTTSLYGIGFGPFIITNKHLFRRNNGTLVVQSLHGVFKVKDTTTLQQHLVDGRDMIIIRMPKDFPPFPQKLKFREPQREARICLVTTNFQTKSMSSMVSDTSCTFPSGDGIFWKHWIQTKDGQCGSPLVSTRDGFIVGIHSASNFTNTNNYFTSVPKNFMELLTNQEAQQWVSGWRLNADSVLWGGHKVFMVKPEEPFQPVKEATQL [E108A],0.0367,0.0471,0.0573,0.0547,–,0.0379,0.0594,0.0616,0.063,–,–,0.0579,0.05,–,0.056,0.0639,0.0717,0.0617,–
MGESLFKGPRDYNPISSSICHLTNESDGHTTSLYGIGFGPFIITNKHLFRRNNGTLVVQSLHGVFKVKDTTTLQQHLVDGRDMIIIRMPKDCPPFPQKLKFREPQREERICLVTTNFQTKSMSSMVSDTSCTFPSGDGIFWKHWIQTKDGQCGSPLVSTRDGFIVGIHSASNFTNTNNYFTSVPKNFMELLTNQEAQQWVSGWRLNADSVLWGGHKVFMVKPEEPFQPVKEATQL [F92C],0.066,–,0.0575,–,–,0.0794,0.085,–,–,0.0647,0.0602,0.0723,0.0675,0.0824,0.066,0.0735,–,–,0.0638
MGESLFKGPRDYNPISSSICHLTNESDGHTTSLYGIGFGPFIITNKHLFRRNNGTLVVQSLHGVFKVKDTTTLQQHLVDGRDMIIIRMPKDFPPFPQKLKFREPQRYERICLVTTNFQTKSMSSMVSDTSCTFPSGDGIFWKHWIQTKDGQCGSPLVSTRDGFIVGIHSASNFTNTNNYFTSVPKNFMELLTNQEAQQWVSGWRLNADSVLWGGHKVFMVKPEEPFQPVKEATQL [E107Y],0.0676,–,0.0618,–,–,0.0677,0.067,–,0.0599,0.0549,0.061,0.0856,0.0471,–,–,0.0941,0.0869,–,0.0553
MGESLFKGPRDYNPISSSICHLTNESDGHTTSLYGIGFGPFIITNKHLFRRNNGTLVVQSLHGVFKVKDTTTLQQHLVDGRDMIIIRMPWDFPPFPQKLKFREPQREERICLVTTNFQTKSMSSMVSDTSCTFPSGDGIFWKHWIQTKDGQCGSPLVSTRDGFIVGIHSASNFTNTNNYFTSVPKNFMELLTNQEAQQWVSGWRLNADSVLWGGHKVFMVKPEEPFQPVKEATQL [K90W],0.0781,0.0867,0.0599,0.0658,–,0.0757,0.0849,0.059,0.061,0.0762,0.0369,0.0695,0.082,0.093,0.0417,0.074,0.0923,–,–
MGESLFKGPRDYNPISSSICHLTNESDGHTTSLYGIGFGPFIITNKHLFRRNNGTLVVQSLHGVFKVKDTTTLQQHLVDGRDMIRIRMPKDFPPFPQKLKFREPQREERICLVTTNFQTKSMSSMVSDTSCTFPSGDGIFWKHWIQTKDGQCGSPLVSTRDGFIVGIHSASNFTNTNNYFTSVPKNFMELLTNQEAQQWVSGWRLNADSVLWGGHKVFMVKPEEPFQPVKEATQL [I85R],0.0473,0.0508,0.0969,–,–,0.0584,0.0694,0.0658,0.0455,–,–,0.0575,0.0338,–,–,–,0.0733,–,–
MGESLFKGPRDYNPISSSICHLTNESDGHTTSLYGIGFGPFIITNKHLFRRNNGTLVVQSLHGVFKVKDTTTLQQHLVDGRDDIIIRMPKDFPPFPQKLKFREPQREERICLVTTNFQTKSMSSMVSDTSCTFPSGDGIFWKHWIQTKDGQCGSPLVSTRDGFIVGIHSASNFTNTNNYFTSVPKNFMELLTNQEAQQWVSGWRLNADSVLWGGHKVFMVKPEEPFQPVKEATQL [M83D],0.0452,0.0267,0.0496,0.0481,0.0471,0.0639,0.0512,0.0706,0.0478,0.0572,0.0524,0.0572,–,–,0.0462,0.0345,0.0575,0.0489,–
MGESLFKGPRDYNPISSSICHLTNESDGHTTSLYGIGFGPFIITNKHLFRRNNGTLVVQSLHGVFKVKDTTTLQQHLVDGRDMIIIRMPKDFPPFPQCLKFREPQREERICLVTTNFQTKSMSSMVSDTSCTFPSGDGIFWKHWIQTKDGQCGSPLVSTRDGFIVGIHSASNFTNTNNYFTSVPKNFMELLTNQEAQQWVSGWRLNADSVLWGGHKVFMVKPEEPFQPVKEATQL [K98C],0.0624,0.0695,0.0618,0.0625,–,0.0768,0.132,0.0867,0.0674,0.0444,0.0662,0.075,0.0568,0.0955,–,0.0745,0.0838,0.0757,0.0563
MGESLFKGPRDYNPISSSICHLTNESDGHTTSLYGIGFGPFIITNKHLFRRNNGTLVVQSLHGVFKVKDTTTLQQHLVDGRDMIIIRMPKDFPPFPQLLKFREPQREERICLVTTNFQTKSMSSMVSDTSCTFPSGDGIFWKHWIQTKDGQCGSPLVSTRDGFIVGIHSASNFTNTNNYFTSVPKNFMELLTNQEAQQWVSGWRLNADSVLWGGHKVFMVKPEEPFQPVKEATQL [K98L],0.0625,–,0.0609,–,0.0655,0.0888,0.0625,0.0801,0.0633,–,–,0.0711,0.0715,0.112,0.0961,0.0812,–,–,0.0848
